Measurements from paper PMC6323126.
Results are given in words; binding and its absence hold for the method and conditions named. Binding seen in cells or lysates may run through a third protein. Where a sequence is shown, tags or fusion partners need not be part of it.

Molecular target: T1, Flag-tagged STRN3 Δ64–190 (human) (UniProt Q13033)
T1 sequence: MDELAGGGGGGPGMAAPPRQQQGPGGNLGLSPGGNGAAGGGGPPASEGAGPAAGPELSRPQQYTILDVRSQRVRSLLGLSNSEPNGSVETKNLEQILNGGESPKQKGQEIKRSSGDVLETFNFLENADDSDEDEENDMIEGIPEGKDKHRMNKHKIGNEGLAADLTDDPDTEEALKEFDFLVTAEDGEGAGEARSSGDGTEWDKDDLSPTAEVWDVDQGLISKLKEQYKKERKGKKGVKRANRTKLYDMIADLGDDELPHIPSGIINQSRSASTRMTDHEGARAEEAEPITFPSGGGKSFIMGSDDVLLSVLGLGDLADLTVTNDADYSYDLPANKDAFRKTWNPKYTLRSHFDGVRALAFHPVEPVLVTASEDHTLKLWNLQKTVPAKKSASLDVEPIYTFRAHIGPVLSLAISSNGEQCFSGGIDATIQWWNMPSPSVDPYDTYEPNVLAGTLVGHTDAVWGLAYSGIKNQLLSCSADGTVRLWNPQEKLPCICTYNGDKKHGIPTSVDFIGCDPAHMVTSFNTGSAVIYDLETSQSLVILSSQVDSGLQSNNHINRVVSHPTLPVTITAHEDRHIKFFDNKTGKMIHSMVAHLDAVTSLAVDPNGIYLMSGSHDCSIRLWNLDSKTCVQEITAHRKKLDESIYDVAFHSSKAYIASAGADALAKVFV
Assay: co-IP; HEK293FT cells transfected with tagged plasmids, lysed 24 h later in RIPA buffer; immunoprecipitation with indicated antibodies and Protein A/G beads; immunoblot

binding: no binding
B1: HA-tagged SIKE1 (wildtype, in cells) (protein, UniProt Q9BRV8 1-207)
chain: MSCTIEKILTDAKTLLERLREHDAAAESLVDQSAALHRRVAAMREAGTALPDQYQEDASDMKDMSKYKPHILLSQENTQIRDLQQENRELWISLEEHQDALELIMSKYRKQMLQLMVAKKAVDAEPVLKAHQSHSAEIESQIDRICEMGEVMRKAVQVDDDQFCKIQEKLAQLELENKELRELLSISSESLQARKENSMDTASQAIK
